From PMC12820563, “FoxP3 forms a head-to-head dimer in vivo and stabilizes its multimerization on adjacent microsatellites”
Some of the results follow.

Biological target: T1, MBP-FoxP1dN (Mus musculus, UniProt P58462 326-579)
T1 sequence: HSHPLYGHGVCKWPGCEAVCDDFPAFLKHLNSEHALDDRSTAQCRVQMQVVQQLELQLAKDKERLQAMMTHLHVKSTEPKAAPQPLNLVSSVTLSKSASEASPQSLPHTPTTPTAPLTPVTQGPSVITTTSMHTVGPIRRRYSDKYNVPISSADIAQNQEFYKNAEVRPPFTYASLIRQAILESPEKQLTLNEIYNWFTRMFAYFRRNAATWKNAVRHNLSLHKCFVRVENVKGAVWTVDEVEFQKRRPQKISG
Test: PD-seq (MBP pull-down with sequencing); 20 mM Tris-HCl pH 7.5, 100 mM NaCl, 1.5 mM MgCl2, 0.4 uM protein, 0.1 uM dsDNA library, 30 min, room temperature, amylose pull-down; high values mean tight binding
Details: protein: recombinant; tags: His6-MBP; chain copies: 2; dsDNA, one strand shown
How it was run: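 Binding is reads-per-million enrichment of pull-down over input, with replicates pooled. It comes from 30 min room-temperature incubation in Tris pH 7.5 buffer with NaCl and MgCl2 of 0.4 µM His6-MBP-tagged, N-terminally truncated mouse FoxP3 or FoxP1 fragment from E. coli with 0.1 µM Klenow-filled degenerate double-stranded DNA library, followed by amylose resin capture, three washes and Illumina sequencing of the released DNA.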

Row | Sequence | binding signal
1 | GATGATTGTTCTCCCAGCTGATGAATTCAAATTTTCGAGTAAACAAATTTTCCTAATCTTTCTGTTCAAGCGCCATCTAC | 0.86 RPM ratio (pull-down/input)
2 | GATGATTGTTCTCCCAGCTGATGAATTGACTTTATCGAGTAAACAAATTTTCCTAATCTTTCTGTTCAAGCGCCATCTAC | 1.12 RPM ratio (pull-down/input)
3 | GATGATTGTTCTCCCAGCTGATGAATTTACTGAGTCGAGTAAACAAATTTTCCTAATCTTTCTGTTCAAGCGCCATCTAC | 1.13 RPM ratio (pull-down/input)
4 | GATGATTGTTCTCCCAGCTGATGAATTGAGCTTATCGAGTAAACAAATTTTCCTAATCTTTCTGTTCAAGCGCCATCTAC | 0.879 RPM ratio (pull-down/input)
5 | GATGATTGTTCTCCCAGCTGATGAATTACTATCATCGAGTAAACAAATTTTCCTAATCTTTCTGTTCAAGCGCCATCTAC | 1.28 RPM ratio (pull-down/input)
6 | GATGATTGTTCTCCCAGCTGATGAATTAGGGACTTCGAGTAAACAAATTTTCCTAATCTTTCTGTTCAAGCGCCATCTAC | 0.866 RPM ratio (pull-down/input)
7 | GATGATTGTTCTCCCAGCTGATGAATTCGCGACATCGAGTAAACAAATTTTCCTAATCTTTCTGTTCAAGCGCCATCTAC | 0.942 RPM ratio (pull-down/input)
8 | GATGATTGTTCTCCCAGCTGATGAATTAATCCGGTCGAGTAAACAAATTTTCCTAATCTTTCTGTTCAAGCGCCATCTAC | 0.792 RPM ratio (pull-down/input)
9 | GATGATTGTTCTCCCAGCTGATGAATTCAACTTGTCGAGTAAACAAATTTTCCTAATCTTTCTGTTCAAGCGCCATCTAC | 0.871 RPM ratio (pull-down/input)
10 | GATGATTGTTCTCCCAGCTGATGAATTATGGCTCTCGAGTAAACAAATTTTCCTAATCTTTCTGTTCAAGCGCCATCTAC | 0.843 RPM ratio (pull-down/input)
11 | GATGATTGTTCTCCCAGCTGATGAATTCGACTTTTCGAGTAAACAAATTTTCCTAATCTTTCTGTTCAAGCGCCATCTAC | 0.873 RPM ratio (pull-down/input)
12 | GATGATTGTTCTCCCAGCTGATGAATTGTGCATCTCGAGTAAACAAATTTTCCTAATCTTTCTGTTCAAGCGCCATCTAC | 1.66 RPM ratio (pull-down/input)
13 | GATGATTGTTCTCCCAGCTGATGAATTACACAATTCGAGTAAACAAATTTTCCTAATCTTTCTGTTCAAGCGCCATCTAC | 1.68 RPM ratio (pull-down/input)
14 | GATGATTGTTCTCCCAGCTGATGAATTCCAGTCATCGAGTAAACAAATTTTCCTAATCTTTCTGTTCAAGCGCCATCTAC | 0.893 RPM ratio (pull-down/input)
15 | GATGATTGTTCTCCCAGCTGATGAATTGTTGAGTTCGAGTAAACAAATTTTCCTAATCTTTCTGTTCAAGCGCCATCTAC | 1.1 RPM ratio (pull-down/input)
16 | GATGATTGTTCTCCCAGCTGATGAATTCGTATTATCGAGTAAACAAATTTTCCTAATCTTTCTGTTCAAGCGCCATCTAC | 1.36 RPM ratio (pull-down/input)

Row | Sequence | binding signal
17 | GATGATTGTTCTCCCAGCTGATGAATTGTTTTGATCGAGTAAACAAATTTTCCTAATCTTTCTGTTCAAGCGCCATCTAC | 2.01 RPM ratio (pull-down/input)
18 | GATGATTGTTCTCCCAGCTGATGAATTCTGCCGATCGAGTAAACAAATTTTCCTAATCTTTCTGTTCAAGCGCCATCTAC | 0.83 RPM ratio (pull-down/input)
19 | GATGATTGTTCTCCCAGCTGATGAATTAGCCTTATCGAGTAAACAAATTTTCCTAATCTTTCTGTTCAAGCGCCATCTAC | 0.917 RPM ratio (pull-down/input)
20 | GATGATTGTTCTCCCAGCTGATGAATTCCATTCCTCGAGTAAACAAATTTTCCTAATCTTTCTGTTCAAGCGCCATCTAC | 0.805 RPM ratio (pull-down/input)
21 | GATGATTGTTCTCCCAGCTGATGAATTACAGTCGTCGAGTAAACAAATTTTCCTAATCTTTCTGTTCAAGCGCCATCTAC | 1.05 RPM ratio (pull-down/input)
22 | GATGATTGTTCTCCCAGCTGATGAATTACGATGCTCGAGTAAACAAATTTTCCTAATCTTTCTGTTCAAGCGCCATCTAC | 1.18 RPM ratio (pull-down/input)
23 | GATGATTGTTCTCCCAGCTGATGAATTCCGCAAATCGAGTAAACAAATTTTCCTAATCTTTCTGTTCAAGCGCCATCTAC | 1.06 RPM ratio (pull-down/input)
24 | GATGATTGTTCTCCCAGCTGATGAATTCACGTGCTCGAGTAAACAAATTTTCCTAATCTTTCTGTTCAAGCGCCATCTAC | 0.87 RPM ratio (pull-down/input)
25 | GATGATTGTTCTCCCAGCTGATGAATTCCTACACTCGAGTAAACAAATTTTCCTAATCTTTCTGTTCAAGCGCCATCTAC | 0.863 RPM ratio (pull-down/input)
26 | GATGATTGTTCTCCCAGCTGATGAATTTATGGCGTCGAGTAAACAAATTTTCCTAATCTTTCTGTTCAAGCGCCATCTAC | 1.12 RPM ratio (pull-down/input)
27 | GATGATTGTTCTCCCAGCTGATGAATTGTGAATGTCGAGTAAACAAATTTTCCTAATCTTTCTGTTCAAGCGCCATCTAC | 1.03 RPM ratio (pull-down/input)
28 | GATGATTGTTCTCCCAGCTGATGAATTATATCATTCGAGTAAACAAATTTTCCTAATCTTTCTGTTCAAGCGCCATCTAC | 1.15 RPM ratio (pull-down/input)
29 | GATGATTGTTCTCCCAGCTGATGAATTAAGCCCGTCGAGTAAACAAATTTTCCTAATCTTTCTGTTCAAGCGCCATCTAC | 0.806 RPM ratio (pull-down/input)
30 | GATGATTGTTCTCCCAGCTGATGAATTGGCATACTCGAGTAAACAAATTTTCCTAATCTTTCTGTTCAAGCGCCATCTAC | 0.976 RPM ratio (pull-down/input)
31 | GATGATTGTTCTCCCAGCTGATGAATTCTCTCATTCGAGTAAACAAATTTTCCTAATCTTTCTGTTCAAGCGCCATCTAC | 0.862 RPM ratio (pull-down/input)
